Test results as given in PubChem BioAssay AID588795 (National Center for Advancing Translational Sciences (NCATS), 2011).
Screen size: about 390,000 compounds; about 1,400 (0.36%) were called active. The inconclusive results got no clear call from the source; some entries with a clear call stand among them for comparison. Calls come from the whole dose curve; as a rule, active = well fitted inhibition curve with a large enough effect; inconclusive = small, poorly fitted or top-dose-only effect; inactive = no such curve, though single readings can be large or run the other way. A potency beside an inconclusive call is a rough fit, not a confirmed value.

Biological target: Flap endonuclease 1 (Homo sapiens) (UniProt P39748)
Assay: qHTS Assay for the Inhibitors of Human Flap endonuclease 1 (FEN1). Note: nearly all actives have a fitted effect of over 65% in size.
Settings: Recombinant FEN1 flap cleavage, fluorescence, 15 min; series mostly up to 114 µM; activity change, negative = inhibition: at the top concentration
Excerpt: The major human flap endonuclease FEN1 is an efficient structure-specific enzyme that recognizes and cleaves a 5'-unannealed DNA flap. It belongs to the RAD2 family nucleases, which are involved in DNA metabolism and are highly conserved in prokaryotes and eukaryotes. FEN1 is a key enzyme in DNA replication, repair and maintenance of genomic stability. 5'-flap removal by FEN1 is critical for Okazaki fragment processing during lagging strand DNA synthesis, long-patch base excision repair (LP BER), and regulating or facilitating recombination events. […] Deletion of the yeast FEN1 gene, i.e. rad27, results in an increased frequency of short DNA (3-32 bp) repeats, micro- and mini-satellite formation, trinucleotide repeat expansion, spontaneous recombination events, and a severe growth defect in association with cell cycle arrest in late S/G2 phase. […] Cells from fen1-/- blastocysts show increased apoptotic cell death after ionizing radiation treatment, and chicken cells lacking the fen1 gene are hypersensitive to DNA alkylating agents, e.g. methylmethane sulfonate (MMS) and N-methyl-N'-nitro-N-nitrosoguanidine (MNNG), as well as hydrogen peroxide.
NIH Chemical Genomics Center [NCGC]
NIH Molecular Libraries Probe Centers Network [MLPCN]
Assay Submitter (PI): David Wilson, National Institute of Aging
Three uL of reagents (buffer in column 3 and 4 as negative control and 10 nM FEN1 in columns 1, 2, and 5-48) were dispensed into 1,536-well black solid-bottomed plate. Compounds (23 nL) were transferred via Kalypsys pin tool equipped with 1536-pin array (10 nL slotted pins, V&P Scientific, San Diego, CA). The plates were then incubated for 15 min at room temperature, and 1 uL substrate (50 nM final concentration) were added to start the reaction read twice at 0 min read and 15 min on ViewLux reader. Throughout the screen, reagent bottle and all liquid lines were chilled and made light-tight to minimize reagent degradation. All screening operations were performed on a fully integrated robotic system (Kalypsys, San Diego, CA) containing one RX-130 and two RX-90 anthropomorphic robotic arms (Staubli, Duncan, SC). Library plates were screened starting from the lowest and proceeding to the highest concentration, and a "double-dipping" step of the highest concentration was required to access higher concentrations of compounds. Vehicle-only plates, with DMSO being pin-transferred to the entire column 5-48 compound area, were inserted uniformly at the beginning and the end of each library in order to monitor for and record any shifts in the background, which can be affected by reagent dispensers or loss in enzyme activity overtime. Screening data was corrected, normalized, and concentration-effect relationships were derived by using publicly-available curve fitting algorithms developed in-house (http://ncgc.nih.gov/pub/openhts). A four parameter Hill equation was fitted to the concentration-response data by minimizing the residual error between the modeled and observed responses.
% is set by controls: 0 for no effect and ±100 for the full control effect; potency is the fitted concentration of half-maximal effect; tags give direction and shape of the fitted curve.

Sequence of UniProt P39748 (P39748 whole entry, looked up): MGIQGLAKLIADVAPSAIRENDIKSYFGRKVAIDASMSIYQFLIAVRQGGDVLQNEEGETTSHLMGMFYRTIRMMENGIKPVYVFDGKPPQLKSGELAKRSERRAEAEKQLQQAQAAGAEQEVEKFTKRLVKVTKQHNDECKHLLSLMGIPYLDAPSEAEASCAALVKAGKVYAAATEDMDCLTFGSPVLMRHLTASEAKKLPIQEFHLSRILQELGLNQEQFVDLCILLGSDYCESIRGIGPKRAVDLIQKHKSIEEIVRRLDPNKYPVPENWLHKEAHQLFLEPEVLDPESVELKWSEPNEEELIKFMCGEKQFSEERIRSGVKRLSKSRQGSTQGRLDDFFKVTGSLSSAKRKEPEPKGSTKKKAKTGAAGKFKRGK

Row | SMILES | Potency | activity change, negative = inhibition
1 | COc1ccc(/C=C2\CCn3c2nc2cc(C(=O)O)ccc2c3=O)cc1O | inconclusive: 56.2 µM [inhibitor, partial curve, poor fit] | –
2 | O=c1oc2c3c4c(cc2s1)CCCN4CCC3 | inconclusive: 70.8 µM [inhibitor, partial curve, poor fit] | –
3 | Cc1ccc(C(=O)NN2C(=O)C3C4C=CC([C@@H]3C2=O)C42CC2)cc1 (stereo partly specified) | inconclusive: 39.8 µM [inhibitor, single point] | –
4 | CCNc1ccc(Br)cc(C(=O)/C=C/c2ccc(Cl)cc2Cl)c1=O | inconclusive: 56.2 µM [inhibitor, partial curve, poor fit] | –
5 | O=C1C=C(Nc2ccccc2C(=O)O)c2ccccc2C1=O | inconclusive: 79.4 µM [inhibitor, single point] | –
6 | COc1ccc(CCN2C(=O)C=CC2=O)cc1OC | – | inactive: 1.98%
7 | O=C(O)c1cccc(N2C(=O)c3cc([N+](=O)[O-])cc4cc([N+](=O)[O-])cc(c34)C2=O)c1 | active: 20 µM | –
8 | Cc1ccc(-c2csc(N(CCCN3CCOCC3)C(=O)c3ccco3)n2)cc1 | inconclusive: 89.1 µM [inhibitor, partial curve, poor fit] | –
9 | CC(C)n1cnc2c(NCc3ccccc3)nc(NCc3ccccc3)nc21 | inconclusive: 89.1 µM [inhibitor, partial curve, poor fit] | –
10 | O=C(Nc1sc2c(c1C(=O)c1ccc(Cl)cc1)CCCC2)c1cccnc1 | inconclusive: 79.4 µM [inhibitor, partial curve, poor fit] | –
11 | Cc1ncc(CN2CCCC(C(=O)Nc3ccc(-c4cscn4)cc3)C2)cn1 (stereo unspecified) | – | inactive: 1.71%
12 | Cc1ccc(S(=O)(=O)N/N=C\c2ccc([N+](=O)[O-])o2)cc1 | inconclusive: 50.1 µM [inhibitor, partial curve] | –
13 | COc1ccc2c(c1)Cc1sc(NC(=O)c3ccccc3C)nc1-2 | inconclusive: 2.24 µM [inhibitor, partial curve, poor fit] | –
14 | N#CC1=C(N)Oc2n[nH]c(-c3cccs3)c2C1c1ccoc1 (stereo unspecified) | inconclusive: 50.1 µM [inhibitor, partial curve, poor fit] | –
15 | CCc1ccc(NC(=O)Nc2cn(C)c(=O)c3ccccc23)cc1 | – | inactive: -2.49%
16 | CCc1ccc(NC(=O)CSc2nc3c(c(=O)n(C)c(=O)n3C)n2C)cc1 | inconclusive: 17.8 µM [inhibitor, partial curve, poor fit] | –
17 | CCOC(=O)c1ccc(NC(=O)CN(Cc2ccc(C)cc2)S(=O)(=O)c2ccc(C)cc2)cc1 | inconclusive: 79.4 µM [inhibitor, single point] | –
18 | O=C1N[C@@H](Cc2ccccc2)COC(=O)[C@H](Cc2ccc(F)cc2)C/C=C\C[C@H]1CC(=O)N(CCO)Cc1ccccc1 | inconclusive: 79.4 µM [inhibitor, partial curve, poor fit] | –
19 | CC(=O)c1ccc(NC(=O)Nc2ccc3snnc3c2)cc1 | inconclusive: 79.4 µM [inhibitor, single point] | –
20 | NNC(=O)c1cc(-c2ccc(N)cc2)nc2ccc(Br)cc12 | inconclusive: 79.4 µM [inhibitor, partial curve, poor fit] | –
21 | CCCCOc1ccc(C(=O)NCC(c2ccc(Cl)cc2)N2CCOCC2)cc1 (stereo unspecified) | inconclusive: 89.1 µM [inhibitor, partial curve, poor fit] | –

Row | SMILES | Potency | activity change, negative = inhibition
22 | O=C1C(=O)c2ccccc2C(O)=C1CCCCl | inconclusive: 3.16 µM [inhibitor, partial curve, poor fit] | –
23 | O=c1[nH]n2c(=O)c3c([nH]c2c1N=Nc1cccc(Cl)c1)CCC3 | inconclusive: 56.2 µM [inhibitor, partial curve] | –
24 | CC(=O)Nc1ccc(NC(=O)c2cc(=O)c3ccccc3o2)cc1 | inconclusive: 79.4 µM [inhibitor, partial curve, poor fit] | –
25 | CCOC(=O)c1cc2c(=O)n3ccccc3nc2n(Cc2ccco2)c1=NC(=O)c1ccc(Br)cc1 | active: 35.5 µM | –
26 | COc1ccc(C)cc1NC(=O)COc1cc(=O)n(C)c2ccccc12 | – | inactive: -15.5%
27 | O=C(NC(=S)Nc1ccc(N2CCCCC2)c(Cl)c1)c1cccs1 | inconclusive: 89.1 µM [inhibitor, partial curve, poor fit] | –
28 | COc1ccc(NC(=O)c2cc(-c3ccccc3Cl)on2)cc1OC | inconclusive: 89.1 µM [inhibitor, single point] | –
29 | Cc1cc(C)cc(N=Cc2ccc([N+](=O)[O-])s2)c1 | inconclusive: 50.1 µM [inhibitor, partial curve] | –
30 | O=C(Nc1ccc(Br)cc1)c1ccc(F)c(S(=O)(=O)NC2CCCCCC2)c1 | inconclusive: 12.6 µM [inhibitor, partial curve, poor fit] | –
31 | Fc1ccc2[nH]c3c(NCc4ccccc4)ncnc3c2c1 | inconclusive: 50.1 µM [inhibitor, partial curve, poor fit] | –
32 | COc1ccc2c(c1)c1ccc3c(c1n2C)C(=O)C=CC3=O | inconclusive: 14.1 µM [inhibitor, full curve, poor fit] | –
33 | O=c1c(OC2OC(CO)C(O)C(O)C2O)c(-c2ccc(O)c(O)c2)oc2cc(O)cc(O)c12 (stereo unspecified) | inconclusive: 31.6 µM [inhibitor, single point] | –
34 | CCCCNC(=S)N/N=C/c1ccc(C#N)cc1 | inconclusive: 100 µM [inhibitor, partial curve, poor fit] | –
35 | [O-][N+]12CCCc3cccc(c31)CCC2 | inconclusive: 89.1 µM [inhibitor, partial curve, poor fit] | –
36 | S=c1[nH]nc(-c2cc(-c3ccsc3)n[nH]2)n1-c1ccccc1 | – | inactive: -2.28%
37 | O=C(OCC(=O)N1CCN(C(=O)c2ccco2)CC1)c1cc(-c2ccco2)nc2ccccc12 | inconclusive: 50.1 µM [inhibitor, partial curve] | –
38 | COc1cccc(C2CC(=O)N3CN(C4CCCCC4)CSC3=C2C#N)c1 (stereo unspecified) | inconclusive: 2 µM [inhibitor, full curve] | –
39 | O=C(ONC(=O)C1CCCCC1C(=O)NOC(=O)c1ccccc1)c1ccccc1 (stereo unspecified) | active: 17.8 µM | –
40 | CCc1ccc([C@@H]2CC=C(C(=O)O)[C@H](c3ccc(Br)cc3)N2S(=O)(=O)c2ccc(C)cc2)cc1 | inconclusive: 89.1 µM [inhibitor, partial curve, poor fit] | –
41 | O=C(NCc1ccccc1)C(=O)NCC(c1cccnc1)N1CCN(c2ccccc2)CC1 (stereo unspecified) | inconclusive: 44.7 µM [inhibitor, partial curve, poor fit] | –
42 | O=[N+]([O-])c1ccc(C=Nc2cccc3ccccc23)s1 | inconclusive: 14.1 µM [inhibitor, partial curve, poor fit] | –

Row | SMILES | Potency | activity change, negative = inhibition
43 | CC(=O)OCCNc1cc(Sc2nc3ccccc3[nH]2)c2nonc2c1[N+](=O)[O-] | inconclusive: 5.01 µM [inhibitor, partial curve, poor fit] | –
44 | Cc1cc(C)c2nc(/N=C(\N)NC(=O)Nc3ccccc3)nc(C)c2c1 | inconclusive: 56.2 µM [inhibitor, partial curve, poor fit] | –
45 | CCN1CCN(c2cc(C)c3cc(NC(=O)/C=C/c4cccc(Cl)c4)ccc3n2)CC1 | inconclusive: 44.7 µM [inhibitor, partial curve, poor fit] | –
46 | CCN1CCN(CCNC(=O)c2ccc(/C=C3/Sc4ccccc4N(Cc4cccc(Cl)c4)C3=O)cc2)CC1 | inconclusive: 79.4 µM [inhibitor, partial curve, poor fit] | –
47 | O=C(NCCc1nc2ccccc2n1CCOc1cccc2ccccc12)C1CCCCC1 | – | inactive: 8.54%
48 | CCOc1ccc(Nc2c3ccccc3nc3ccccc23)cc1 | active: 44.7 µM | –
49 | O=C(COc1ccc(/C=N/NC(=O)c2ccc(O)cc2)cc1)Nc1ccc([N+](=O)[O-])cc1 | inconclusive: 70.8 µM [inhibitor, partial curve] | –
50 | CCn1c(=O)c(C(=O)Nc2cccnc2)c(O)c2ccccc21 | inconclusive: 89.1 µM [inhibitor, partial curve, poor fit] | –
51 | Cc1ccc(NC(=O)CN(C)S(=O)(=O)c2ccc3[nH]c(=O)oc3c2)c(C)c1 | – | inactive: -5.15%
52 | COCCOC(=O)c1c(C)oc2ccc(OC(=O)c3cccs3)cc12 | inconclusive: 89.1 µM [inhibitor, partial curve, poor fit] | –
53 | O=C1C=C(c2ccccc2)C[C@H](c2cccs2)[C@H]1n1nnc([N+](=O)[O-])n1 | – | inactive: 8.49%
54 | CN(C)CC1CCC/C(=C\c2ccc(OC(=O)c3ccc(Cl)cc3)cc2)C1=O (stereo unspecified) | inconclusive: 31.6 µM [inhibitor, full curve] | –
55 | CCN1C(=O)[C@H]2[C@@H](c3ccc(-c4cccc(Cl)c4)c(OC)c3)N3CCC[C@@]3(C(=O)OC)[C@H]2C1=O | inconclusive: 50.1 µM [inhibitor, partial curve, poor fit] | –
56 | CN(C)CCCNc1cc(-c2ccccc2)nc2cc(-c3cccc(F)c3)nn12 | inconclusive: 17.8 µM [inhibitor, full curve, poor fit] | –
57 | CCCCC(=O)NC(c1ccc(Cl)cc1Cl)c1ccc2cccnc2c1O (stereo unspecified) | inconclusive: 50.1 µM [inhibitor, partial curve] | –
58 | CCCCCCCCCCN(CCCCCCCCCC)c1ccc(/C=C/c2ccnc3ccccc23)cc1 | – | inactive: 2.53%
59 | O=C(c1ccccc1)c1ccc2nc(N3CCN(c4ccccc4)CC3)c3nncn3c2c1 | – | inactive: -2.77%
60 | COc1cc(/C=C(\C#N)c2nc3ccccc3[nH]2)ccc1O | inconclusive: 20 µM [inhibitor, full curve] | –
61 | Cc1onc(-c2ccccc2)c1C(=O)Nc1sc2c(c1C(N)=O)CCC2 | inconclusive: 89.1 µM [inhibitor, partial curve, poor fit] | –
